# Experimental data published in the supplement of paper PMC12217912.
# Some of the results follow. The full chains were built here from the parent and the listed change. Inactive controls read about 0.05.
# B1: TEV protease; numbered along this chain (parent)
# chain: MGESLFKGPRDYNPISSSICHLTNESDGHTTSLYGIGFGPFIITNKHLFRRNNGTLVVQSLHGVFKVKDTTTLQQHLVDGRDMIIIRMPKDFPPFPQKLKFREPQREERICLVTTNFQTKSMSSMVSDTSCTFPSGDGIFWKHWIQTKDGQCGSPLVSTRDGFIVGIHSASNFTNTNNYFTSVPKNFMELLTNQEAQQWVSGWRLNADSVLWGGHKVFMVKPEEPFQPVKEATQL
# Variants of: B1
# Assay: raw area under fraction-flipped curve 0-4 h after induction (AUC4h, not background-subtracted), DNA-recorder readout of cleavage of the substrate (dimensionless); higher = more cleavage of the substrate by the protease variant
# Conditions: temperature: 34 °C; time window: 0-4 h after rhamnose induction
# Method: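 In vivo DNA recorder in E. coli TOP10(DE3) ΔrhaA at 34 °C. Each TEVp single-site mutant (parent TEVp 0) is paired with a single-site variant of the 7-mer TEVs (canonical ENLYFQ|S). The substrate sits between flexible linkers in a Bxb1-sfGFP-TEVs-SsrA fusion, so cleavage stabilises Bxb1 and speeds flipping of a recombination array, read by NGS. The value is the raw area under the fraction-flipped curve over 0-4 h after rhamnose induction (AUC4h), with ≥20 reads per time point. It is not background-subtracted; inactive controls average about 0.047.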
# 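Also: Bxb1 expression induced with 0.2% (w/v) L-rhamnose at OD600 near 0.5, cultures sampled hourly, flipped fraction per protease–substrate barcode pair counted by paired-end Illumina sequencing.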
Variant,area with substrate ENLYFQA,area with substrate ENLYFQC,area with substrate ENLYFQD,area with substrate ENLYFQE,area with substrate ENLYFQF,area with substrate ENLYFQG,area with substrate ENLYFQH,area with substrate ENLYFQI,area with substrate ENLYFQK,area with substrate ENLYFQL,area with substrate ENLYFQM,area with substrate ENLYFQN,area with substrate ENLYFQP,area with substrate ENLYFQQ,area with substrate ENLYFQR,area with substrate ENLYFQS,area with substrate ENLYFQT,area with substrate ENLYFQW,area with substrate ENLYFQY,area with substrate ENLYFQV
S135Q,0.0793,0.0592,0.0617,0.0532,0.0589,0.0633,0.0594,0.0681,0.0625,0.0403,0.0509,0.0253,0.0565,0.0778,0.0689,0.076,0.0553,0.0566,0.0612,
N193D,0.0893,,,,,,0.0843,,,0.0438,0.071,,,,0.0615,0.0972,0.0651,,0.063,
V67Q,,0.088,0.0785,,,0.0908,,0.0566,0.0577,,,0.0678,,,0.0509,0.0825,0.0528,0.0599,0.073,
Y12F,0.101,0.112,0.0892,,0.0684,0.0918,,,0.0564,0.0672,0.0991,0.0659,0.0602,0.03,0.059,0.107,0.0643,0.0629,0.0969,0.0803
K185Q,,0.102,,,0.0837,0.0904,0.0861,0.0656,0.0672,,0.0865,0.0825,0.0597,,0.0382,0.104,0.0614,0.0654,,0.0504
Q227Y,0.0849,0.107,,0.051,,,,,0.083,0.0643,0.0791,0.0642,0.0589,0.0917,0.0543,0.0888,0.0717,0.0548,,0.0534
P134K,,0.0038,,,,,,0.0723,,0.0448,0.106,0.0731,0.0663,0.054,0.0575,0.0941,,,,0.0552
P93H,0.0616,0.114,,,,0.0952,,0.0561,0.0388,0.0593,,0.0696,,0.0687,0.0543,0.0974,,,0.0833,0.0551
F65Y,0.13,0.0553,,,,0.0897,0.092,0.0687,,0.0592,0.0829,0.084,0.0548,0.0745,0.0618,0.103,0.0688,0.0616,,0.0571
D27R,0.102,0.0895,,,,,,,,,,0.0813,,,0.054,0.0897,,0.0566,0.0815,
S169Q,0.0672,0.0599,0.0659,,0.0662,,0.0504,0.0501,0.0647,0.0459,0.0505,0.0731,0.0531,0.0505,0.0535,0.0594,0.0563,,0.051,0.0615
S169G,0.0644,0.0663,0.0508,,,0.044,0.0706,,,0.0548,0.0605,0.0561,0.0672,0.0725,0.0486,0.0634,0.0589,0.0608,0.0106,
T181S,0.116,0.14,,,,,0.0968,0.0543,,,0.0695,,,,0.0652,0.104,0.0641,,,
I110C,0.0927,0.131,0.0731,,0.079,0.115,0.0835,0.0626,0.0687,0.0588,0.0463,0.0638,,,0.0618,0.107,0.0642,0.085,0.0894,
I110P,0.0685,0.0578,,,,,0.0808,,,,0.0541,,,0.0608,0.0591,0.057,,0.0604,0.0909,
M83P,,0.0555,,,,0.0503,0.0557,,0.0511,0.0684,0.0627,0.0534,,,0.0512,0.0531,0.0502,0.0534,0.0473,0.02
M83Q,0.0743,0.094,0.009,,0.0868,0.0726,,0.0469,0.0576,0.0605,0.0663,0.0559,,0.0323,0.057,0.0696,,0.071,,
Q194M,,0.101,,0.0652,,0.154,,0.0673,0.0887,0.0885,,0.0916,,0.0931,0.0617,0.0999,0.0717,0.0636,,0.0881
C111V,0.11,0.0294,0.0857,,,0.072,,0.0538,0.0576,0.0623,0.0867,0.0601,0.0608,0.0711,0.0649,0.106,0.0641,0.0796,0.0879,0.067
S182G,0.0924,0.141,0.102,,,,0.0965,0.0475,,0.059,,,,,0.0303,0.111,0.0716,0.0543,0.0865,
S182L,,0.0685,0.0466,,,0.122,0.053,0.0411,,,,,,,,0.062,,,,
N186S,0.108,0.112,,0.0841,,,,0.0568,0.0602,,0.0676,,,,0.0471,0.104,0.0693,,0.0704,
W203K,0.083,0.0619,0.0608,,,,,0.0472,0.0643,,0.068,0.0673,,0.0551,0.0487,0.0676,,0.0625,,0.061
R87P,,0.0594,,,,,,0.0494,0.0555,0.0612,,0.0426,,,0.051,0.0608,,,,
R87K,,0.108,0.115,,,,,0.0531,,,,,,,,0.114,,,,0.0787
G138C,,0.117,,,,,,,,0.0783,,,,0.0662,,0.092,0.0694,,,
P94M,0.0788,0.134,0.077,,0.0707,0.0996,0.0941,0.0648,,0.0704,0.0962,,,,0.0566,0.11,,0.0562,,
N116R,0.118,,0.0904,,0.0975,0.0739,0.0775,,0.0644,,0.0819,,,,0.0622,0.11,0.075,0.0786,,0.0672
S17Y,0.0968,0.113,,,0.0703,0.114,0.0611,0.0654,0.0631,0.0623,0.0868,0.0492,0.0585,0.0657,0.0587,0.0985,0.0675,,0.0736,0.0661
